{
  "source": "PubChem BioAssay AID1240",
  "about": "(Sanford-Burnham Center for Chemical Genomics, 2008)",
  "note": "In all, about 50,000 compounds went through this assay and about 800 (1.6%) showed an effect of 50% or more. The list shows a part of the results.",
  "data": [
    {"biological_target": "Bcl-2-like protein 10 (Homo sapiens) (UniProt Q9HD36)", "sequence (Q9HD36 whole entry, looked up)": "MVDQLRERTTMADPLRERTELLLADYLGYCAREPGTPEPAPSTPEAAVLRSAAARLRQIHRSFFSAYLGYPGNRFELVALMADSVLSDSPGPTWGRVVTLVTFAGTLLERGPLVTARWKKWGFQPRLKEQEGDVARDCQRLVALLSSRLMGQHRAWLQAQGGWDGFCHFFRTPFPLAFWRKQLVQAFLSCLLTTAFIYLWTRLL", "experiment": "TR3 peptide-Bcl-B binding displacers, biochemical primary FP assay, phenotype converters (AID 1240);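 further: 0% = Bcl-B with tracer peptide and DMSO and 100% = tracer peptide lacking Bcl-B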", "conditions": "GST-Bcl-B / FITC-TR3 peptide fluorescence polarization; stronger effect = higher value; compound at 3.75 mg/L", "units": {"displacement": "%"}, "values": [
      {"smiles": "O=C(NCc1ccccc1)c1ccc(CN2CCN(c3ccccc3)CC2)cc1", "displacement": -5.8},
      {"smiles": "COc1ccc(N2C(=O)c3ccccc3NC2c2ccc(Br)cc2)cc1", "note": "(stereo not given)", "displacement": 9.6},
      {"smiles": "O=C(Cc1ccc(Cl)cc1)NNC(=O)c1cc(Cl)ccc1O", "displacement": -26.3},
      {"smiles": "CCOC(=O)c1ccc(NC(=O)c2ccc[n+]([O-])c2)cc1", "displacement": -10.9},
      {"smiles": "O=[N+]([O-])c1cc(C(F)(F)F)ccc1N1CCN(S(=O)(=O)c2ccccc2)CC1", "displacement": 15},
      {"smiles": "O=C1/C(=C/c2ccc(-c3ccc(Cl)cc3Cl)o2)SC(=S)N1CC1CCCO1", "note": "(stereo not given)", "displacement": -13.2},
      {"smiles": "CC(C)c1cccc(C(C)C)c1NC(=O)c1ccc(C(=O)C(=O)c2ccccc2)cc1", "displacement": -5.1},
      {"smiles": "Cc1cccc(C(=O)N2CCN(c3ccccc3)CC2)c1", "displacement": -5.8},
      {"smiles": "CCCn1c(=O)c(C(=O)Nc2cc(Cl)ccc2OC)c(O)c2ccccc21", "displacement": 9},
      {"smiles": "Nc1nonc1/C(=N\\OC(=O)Nc1ccccc1)N1CCOCC1", "displacement": -6.6},
      {"smiles": "O=C(O)CCCCCN1C(=O)C(=O)/C(=C(/O)c2ccccc2)C1c1ccccc1[N+](=O)[O-]", "note": "(stereo not given)", "displacement": 3},
      {"smiles": "CCOC(=O)c1ccccc1NC(=O)c1cccc([N+](=O)[O-])c1C", "displacement": 2.7},
      {"smiles": "CC(Nc1cc(=O)n(C)c(=O)[nH]1)c1ccccc1", "note": "(stereo not given)", "displacement": -6.4},
      {"smiles": "CCN(CC)c1ccc(/C=N/NS(C)(=O)=O)cc1", "displacement": 7.3},
      {"smiles": "Cc1cc(C)c2nc3s/c(=C\\c4ccc([N+](=O)[O-])cc4)c(=O)n3c2c1", "displacement": -6.3},
      {"smiles": "COCCCNS(=O)(=O)c1ccc(OC)cc1", "displacement": -2.7},
      {"smiles": "O=C1CC(Cc2ccc(Cl)cc2)C(=O)N1C1CCCCC1", "note": "(stereo not given)", "displacement": -6.7},
      {"smiles": "CC(C)(C)c1cc(Br)ccc1OCC(=O)O", "displacement": -7.2},
      {"smiles": "CC(C)CCNC(=O)c1ccccc1C(=O)NCCC(C)C", "displacement": -4.8},
      {"smiles": "COc1ccc(C(=O)N2CCN(C(=O)c3cccc(F)c3)CC2)cc1OC", "displacement": 6.2},
      {"smiles": "O=C(Nc1c(Cl)cccc1Cl)c1cc2c(ccc3ccccc32)oc1=O", "displacement": -9.3},
      {"smiles": "CS(=O)(=O)N(Cc1ccc(C(=O)NCc2ccco2)cc1)c1ccccc1", "displacement": 7.6},
      {"smiles": "COC(=O)C1=C(C)N(c2ccccc2F)C(=O)/C1=C\\c1ccc(F)cc1", "displacement": 2.3},
      {"smiles": "CCOC(=O)C(=O)Nc1ccc(N(C)C)cc1", "displacement": 14},
      {"smiles": "Cc1ccc(NC(=O)/C(=C\\c2ccc3c(c2)OCO3)NC(=O)c2ccco2)cc1", "displacement": 3.2},
      {"smiles": "O=C(Nc1ccc(Cl)c(Cl)c1)Nc1nnc(CSCc2ccccc2F)s1", "displacement": 0.3},
      {"smiles": "CCCn1c(=N)n(CC(O)c2ccc(C)cc2)c2ccccc21", "note": "(stereo not given)", "displacement": -8.9},
      {"smiles": "Cc1ccc(N2C(=O)CC(NC3CCN(Cc4ccccc4)CC3)C2=O)cc1", "note": "(stereo not given)", "displacement": 3.9},
      {"smiles": "CCn1cc(C(=O)NN)c(=O)c2cc(F)c(N3CCCCCC3)cc21", "displacement": 31.4},
      {"smiles": "C=CCN1C(=O)c2ccccc2C1(O)c1ccc(OC)cc1", "note": "(stereo not given)", "displacement": 13}
    ]}
  ]
}
